Measurements published in paper PMC4336329 (PLoS ONE, 2015).
The whole screen tested about 310,000 compounds, of which about 14,000 (4.5%) showed an effect of 50% or more. Effects have a minus sign here. Some of the results follow.

Target: human ether-à-go-go-related gene (hERG) potassium channel (human, UniProt Q12809)
Assay: primary screen, population patch clamp on CHO cells stably expressing hERG
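Note: peak tail current of the secondary pulse compared with the same well before compound.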

Chain of human ether-à-go-go-related gene (hERG) potassium channel (Q12809 whole entry, looked up): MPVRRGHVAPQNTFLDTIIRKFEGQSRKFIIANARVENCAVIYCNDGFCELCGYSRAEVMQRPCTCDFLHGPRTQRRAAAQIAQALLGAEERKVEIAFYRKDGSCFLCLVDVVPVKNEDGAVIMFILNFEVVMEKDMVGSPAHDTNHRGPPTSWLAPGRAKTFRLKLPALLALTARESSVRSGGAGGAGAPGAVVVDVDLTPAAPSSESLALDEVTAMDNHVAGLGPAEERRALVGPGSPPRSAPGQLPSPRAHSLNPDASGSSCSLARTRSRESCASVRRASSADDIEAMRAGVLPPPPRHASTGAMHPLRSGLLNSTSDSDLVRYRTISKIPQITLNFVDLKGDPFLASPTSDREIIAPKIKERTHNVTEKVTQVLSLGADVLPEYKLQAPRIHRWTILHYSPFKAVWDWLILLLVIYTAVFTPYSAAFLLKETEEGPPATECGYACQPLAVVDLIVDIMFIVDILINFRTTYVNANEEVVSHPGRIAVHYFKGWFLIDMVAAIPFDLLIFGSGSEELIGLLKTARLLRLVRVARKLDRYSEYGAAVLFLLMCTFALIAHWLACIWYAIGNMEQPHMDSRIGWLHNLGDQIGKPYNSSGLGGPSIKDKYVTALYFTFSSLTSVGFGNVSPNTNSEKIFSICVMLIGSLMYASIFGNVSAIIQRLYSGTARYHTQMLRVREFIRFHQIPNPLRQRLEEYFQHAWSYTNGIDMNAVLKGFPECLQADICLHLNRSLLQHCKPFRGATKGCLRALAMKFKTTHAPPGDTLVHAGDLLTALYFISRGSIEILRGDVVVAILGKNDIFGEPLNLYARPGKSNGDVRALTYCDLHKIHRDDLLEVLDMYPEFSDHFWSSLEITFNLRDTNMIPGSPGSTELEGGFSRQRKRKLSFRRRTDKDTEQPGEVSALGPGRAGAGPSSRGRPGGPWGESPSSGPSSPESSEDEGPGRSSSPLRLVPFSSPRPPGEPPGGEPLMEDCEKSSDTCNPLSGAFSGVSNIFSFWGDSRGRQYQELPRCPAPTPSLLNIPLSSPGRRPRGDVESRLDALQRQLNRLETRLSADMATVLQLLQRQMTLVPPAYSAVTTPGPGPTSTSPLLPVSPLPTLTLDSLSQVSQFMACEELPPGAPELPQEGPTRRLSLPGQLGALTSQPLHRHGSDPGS

Row | Compound | hERG current change (%, negative = inhibition) at 10uM [%]
1 | COc1ccc(/C=C2\SC(N3CCc4ccccc4C3)=NC2=O)cc1 | -9.33
2 | CCSCCNC(=O)c1cncc(Br)c1 | 6.27
3 | CC1=C(C(=O)N2CCC3(CC2)OCCO3)C2(CCC(C)CC2)OC1=O (stereo not shown) | -6.74
4 | COC(=O)NC1c2ccccc2Oc2ccc(C)cc21 (stereo not shown) | 10.9
5 | CC1=C(C(=O)Nc2ccccc2)C2(CCCCC2)C(C#N)=C(SCC(N)=O)N1 | 10.7
6 | O=C1CCCC2=C1C(c1ccc(O)c(O)c1)Nc1ccc3ccccc3c12 (stereo not shown) | 3.82
7 | COc1cc(C(=S)N2CCCC2)ccc1OCC(N)=O | 17.8
8 | CN1CC(=O)N/C1=N\C(=O)Nc1ccc(O)cc1 | 19.7
9 | CC(=O)c1cccc(NC(=O)CN2C(=O)C(=O)N(Cc3ccco3)C2=O)c1 | 4.82
10 | COc1ccc(C(=O)Nc2ccc(F)cc2F)cc1OC | 12
11 | O=C(COc1cccnc1[N+](=O)[O-])NC1CCS(=O)(=O)C1 (stereo not shown) | 4.72
12 | COc1cc(C(=O)N2CCN(c3ccccn3)CC2)cc(OC)c1OC | 9.53
13 | CC(=O)Nc1ccc(NC(=O)CSc2nnnn2-c2ccc3c(c2)OCCO3)cc1 | 6.03
14 | CC(C)=CCN1CCN(Cc2cnc(N3CCOCC3)s2)CC1CCO (stereo not shown) | 10.7
15 | O=C(COC(=O)c1ccc(S(=O)(=O)N2CCCC2)cc1)NCc1ccc(F)cc1 | 0.966
16 | COc1ccc(/C=N/NC(=O)c2ccncc2)cc1[N+](=O)[O-] | -8.42
17 | CC(Cc1ccc(Cl)cc1)N1CCC(n2nccc2NC(=O)C2CCCC2)CC1 (stereo not shown) | -76.3
18 | COc1ccc(NC(=O)C2=CC(c3ccco3)=NS(=O)(=O)N2C)cc1 | 0.0772
19 | Cc1cc(=O)oc2cc(OCC(=O)N3CCC(O)CC3)c(Cl)cc12 | 1.9
20 | COc1ccc(C(=O)Nc2ccc(Cl)cc2C(=O)N2CCCC(C)C2)cc1OC (stereo not shown) | -21.1
21 | CN1CCN(C(=S)c2cn(Cc3cccc(F)c3)c3ccccc23)CC1 | 5.12
22 | C/C(=N\NC(=O)c1cc(C(C)C)[nH]n1)c1ccco1 | -2.42

Row | Compound | hERG current change (%, negative = inhibition) at 10uM [%]
23 | CC(=O)c1ccc(OCC(=O)OCC(=O)Nc2sccc2C(N)=O)cc1 | 3.83
24 | COc1ccc2c(c1)OC[C@H]1[C@H]2N2C(=O)CN(CCc3c[nH]c4ccccc34)C(=O)[C@@]2(C)[C@H]1c1ccccc1 | 15.8
25 | CC(=O)OCCCNc1cc(Sc2ccc(C)cc2)c2nonc2c1[N+](=O)[O-] | 7.29
26 | Cc1ccc(C(=O)N2CCNC(=O)C2CC(=O)Nc2ccc(F)cc2)cc1C (stereo not shown) | 11.4
27 | CCc1ccc(C(=O)OCC(=O)NCC(F)(F)F)cc1 | 28
28 | COc1ccccc1Nc1nc(NCCCCO)nc(N2CCCC2)n1 | -42.5
29 | CCC(=O)Nc1nnc(/C=C/c2ccc(OC)cc2)s1 | 11
30 | Cc1ccc(C(=O)Nc2cccc3ccccc23)o1 | 4.82
31 | CC(=O)Nc1ccc(S(=O)(=O)Nc2nc3ccccc3nc2Nc2ccc(N)cc2)cc1 | 22.2
32 | CC(=O)Nc1ccc(SCC(=O)c2cc(C)ccc2C)cc1 | -4.11
33 | Cc1c(Cl)c(C(=O)Nc2nc3ccccc3n2CCN2CCCCC2)nn1C | -68.1
34 | Cc1ccc(S(=O)(=O)N2CCCN(C(C)c3nc4ccccc4c(=O)[nH]3)CC2)cc1 (stereo not shown) | -25.6
35 | O=C(Nc1ccccc1Cl)/C(Cl)=C(\Cl)S(=O)c1ccccc1 (stereo not shown) | -6.94
36 | CS(=O)(=O)N(CC(=O)NCc1ccco1)Cc1ccc(Cl)cc1 | -18.4
37 | Cc1cc(=O)[nH]c(-c2cccs2)n1 | 8.78
38 | CCCCOc1ccc(N(CC(=O)NCc2ccco2)C(=O)CCC(=O)Nc2nccs2)cc1 | 17
39 | CCn1cc(CN(C)S(=O)(=O)c2cccc([N+](=O)[O-])c2)cn1 | -28.8
40 | COc1ccc(CNC(=O)C/C(C)=N/NC(=O)c2cc(OC)cc(OC)c2)cc1 | 5.35
41 | CCNc1cc(O)ccc1C | 4.55
42 | O=C(N/N=C/c1ccccc1)c1[nH]c2ccc(Br)cc2c1-c1ccccc1 | 25.8
43 | C=C(C)c1cccc(C(C)(C)NC(=O)Nc2nncs2)c1 | -2.12
44 | O=C(CC1SC(=Nc2cccc3ccccc23)N(Cc2ccccn2)C1=O)Nc1ccccc1Br (stereo not shown) | 22.3

Row | Compound | hERG current change (%, negative = inhibition) at 10uM [%]
45 | COc1ccc(NC(=O)N/C=C/c2ccccc2)cc1 | 35.6
46 | CCn1c(-c2cc3c(C(F)(F)F)nn(C)c3s2)n[nH]c1=S | 15.9
47 | CNC(=S)N/N=C/c1ccco1 | 7.77
48 | COc1cccc(CC(=O)OCC(=O)N(C)CC(=O)Nc2ccccc2Cl)c1 | 13.3
49 | COc1ccc(C2C(C(=O)NCc3ccccn3)c3ccccc3C(=O)N2C)cc1OC (stereo not shown) | 17.9
50 | Cc1cc(C(=O)CSc2nncs2)c(C)n1Cc1ccco1 | -11.8
51 | CCCc1cc(=O)n2[nH]c(C)c(-c3ccccc3)c2n1 | -8.47
52 | CCCCOc1ccc(C2OC34CCCCC3C(C#N)(C#N)C2(C#N)C(=N)O4)cc1 (stereo not shown) | 6.36
53 | CC(=O)c1cccc(NC(=O)c2csc(-n3nc(C)cc3C(F)(F)F)n2)c1 | 4.79
54 | Cn1cccc1Cc1nnc(SCC(=O)Nc2ccccc2F)n1-c1ccc(F)cc1 | -17.4
55 | COc1ccccc1Oc1ccc(N/C=C/C(=O)c2ccco2)cc1 | 43.9
56 | Cc1ccc(NC(=O)COC(=O)COc2ccc(Cl)cc2)c([N+](=O)[O-])c1 | 9.17
57 | COc1cc2c(cc1OC)CN(C(=O)CSc1ccc(F)cc1)CC2 | 11.2
58 | O=C(N/N=C1\CCCc2ccccc21)c1ccc([N+](=O)[O-])cc1Cl | -3.01
59 | Cc1ccc(N=C(NO)c2nonc2N)cc1 | 10.1
60 | O=S(=O)(c1ccc(Cl)cc1)N1CCC(c2nc3ccccc3[nH]2)CC1 | 1.05
61 | COc1cc2c(cc1OC)CN(CC(=O)Nc1ccc(C)cc1)CC2 | -16.4
62 | COc1ccccc1NS(=O)(=O)c1ccc(O)c(C(=O)OCC(=O)N2c3ccccc3CC2C)c1 (stereo not shown) | -9.57
63 | COc1cc2[nH]c3c(=O)n(CCN4CCCCC4)cnc3c2cc1OC | 6.02
64 | COC(=O)c1ccccc1NC(=O)CN1CCC(NC(=O)c2ccc(C)cc2)CC1 | 8.67
65 | Cc1ccc(OCC(=O)Nc2ccc3c(c2)nc(CCN2CCC(C)CC2)n3C)cc1 | -70.6
66 | COC(=O)c1ccccc1NC(=O)CSc1nccc(C)n1 | 9.31

Row | Compound | hERG current change (%, negative = inhibition) at 10uM [%]
67 | COc1ccc(NC(=O)c2cc(CC(C)C)nc3ccccc23)cc1 | 10.8
68 | Cc1cc(C)c(NC(=O)Cn2nc(-c3ccccc3)nc2-c2ccccc2)c(C)c1 | -18.3
69 | Cc1cc(=S)c2cccc(C)c2[nH]1 | 9.4
70 | O=C1N/C(=C/c2ccsc2)C(=O)N1c1ccccc1 | -2
71 | O=C(NCCOC12CC3CC(CC(C3)C1)C2)c1cccc(Br)c1 | 1.8
72 | O=C1NC(=O)[C@@H]2C3c4ccccc4C=CN3[C@H](C(=O)c3cccs3)[C@H]12 (stereo partly shown) | 7.35
73 | COc1cc(SC)ccc1C(=O)OC1CCOC1=O (stereo not shown) | 4.34
74 | COc1cccc(CNC(=O)[C@H](CC(C)C)NC(=O)N2CCn3c2nc2ccccc23)c1 | -13.3
75 | Cc1oc(-c2cccc(Cl)c2)nc1CN1CCCC(C(=O)NCCCN2CCOCC2)C1 (stereo not shown) | -28.1
76 | O=C(CSc1nc2ccccc2s1)N/N=C/c1ccccc1C(=O)O | 30.5
77 | CC(OC(=O)c1cc(=O)[nH]c2ccccc12)C(=O)Nc1ccc(Cl)cn1 (stereo not shown) | 1.32
78 | CCOc1ccc(N(CC(=O)NCCSCc2ccccc2)S(C)(=O)=O)cc1 | 3.59
79 | CCOc1ccc(CCNC(=O)c2nnn(CC(=O)Nc3ccccc3C)c2N)cc1OCC | 12.4
80 | O=C(NC1CCCC1)c1ccc2c(c1)S(=O)(=O)c1ccccc1C2=O | -11.2
81 | O=C(COC(=O)c1cccnc1Cl)Nc1cc(S(=O)(=O)N2CCOCC2)ccc1Cl | -24.5
82 | Cn1c(C(C(=O)NCC2CCCO2)N(CCc2ccccc2)C(=O)Cn2nnc3ccccc32)nc2ccccc21 (stereo not shown) | -1.42
83 | CCN1CCN(CC(=O)Nc2cccc(C)c2C)C(=O)C1=O | 4.06
84 | CCc1cc(C(c2ccccc2OC)N2CCOCC2)c(NC(=O)c2ccccc2)s1 (stereo not shown) | 21.3
85 | CCOC(=O)c1c(NC(=O)CN2C(=O)NC3(CCC(C)CC3)C2=O)sc(C)c1-c1ccc(C)cc1 (stereo not shown) | -3.59
86 | Cc1cc(NCCN)nc2ccccc12.O=[N+]([O-])O | 11.1
87 | O=C(Cc1ccccc1)NC1CCN(C(=O)NCc2ccccc2)CC1 | -11.2
88 | COc1ccc(-c2c[n+](CC(=O)c3cccs3)c3n2CCC3)cc1.[Br-] | 10.4
